Laboratory results published in PubChem BioAssay AID1671189 (National Center for Advancing Translational Sciences (NCATS), 2021).
About 70 (6%) of roughly 1,100 compounds were called active. Roughly 22% stayed inconclusive and do not appear here. The call rests on the fitted dose curve; in most records, active means well fitted curve in the direction sought with a large enough effect; inconclusive means small, poorly fitted or top-dose-only effect, or another doubt; inactive means no such curve, though single readings can be large or run the other way. The list shows a part of the results.

Molecular target: Polyunsaturated fatty acid lipoxygenase ALOX12 (Homo sapiens) (UniProt P18054)
Chain of UniProt P18054 (P18054 whole entry, looked up): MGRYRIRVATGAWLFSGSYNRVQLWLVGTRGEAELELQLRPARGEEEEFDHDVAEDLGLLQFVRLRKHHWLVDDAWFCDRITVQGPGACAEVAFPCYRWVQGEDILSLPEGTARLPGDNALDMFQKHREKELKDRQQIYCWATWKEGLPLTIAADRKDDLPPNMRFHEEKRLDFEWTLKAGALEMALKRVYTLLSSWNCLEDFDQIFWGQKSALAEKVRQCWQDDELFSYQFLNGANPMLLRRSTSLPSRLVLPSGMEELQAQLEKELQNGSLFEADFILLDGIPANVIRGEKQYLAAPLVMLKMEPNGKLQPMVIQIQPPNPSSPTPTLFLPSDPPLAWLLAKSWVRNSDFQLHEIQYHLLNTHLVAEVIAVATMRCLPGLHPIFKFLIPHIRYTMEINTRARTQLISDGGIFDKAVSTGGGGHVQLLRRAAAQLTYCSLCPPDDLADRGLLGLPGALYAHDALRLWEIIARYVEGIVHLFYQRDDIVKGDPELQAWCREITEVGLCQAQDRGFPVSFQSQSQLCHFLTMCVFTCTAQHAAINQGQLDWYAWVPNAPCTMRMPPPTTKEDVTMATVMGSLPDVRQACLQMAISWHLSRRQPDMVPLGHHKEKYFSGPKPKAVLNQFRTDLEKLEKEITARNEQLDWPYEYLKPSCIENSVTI
Assay: Confirmatory qHTS assay for inhibitors of human arachidonate 12S-lipoxygenase (ALOX12): Round 2
Conditions: purified human 12-LOX, xylenol orange absorbance; series mostly up to 125 µM; activity change, negative = inhibition: at the top concentration
How it was run: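 Activity was measured as hydroperoxide formation via ferrous/xylenol orange, taking the 573 nm to 405 nm absorbance ratio. Reaction: 40 uM arachidonic acid, 30 min at room temperature, after 15 min compound preincubation with 150 nM enzyme, pH 7.0 Hepes buffer.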
On the % scale 0 is the no-effect control and ±100 the full control effect; potency means the concentration at half of the fitted maximal effect.

SMILES	activity change, negative = inhibition	Potency
CN(C)C[C@H]1O[C@@H](CO)[C@@H](O)[C@H]1N1CCN(c2ccc(F)cc2)CC1	inactive: -16.2% [at 64.5 µM]	–
CN1CC(=O)N(C2CCCNC2)Cc2c1ncnc2N1CCc2ccccc2C1 (centres undefined)	inactive: 2.77%	–
CN1CC(=O)N(C2CCCNCC2)Cc2c(NCC3CC3)ncnc21 (centres undefined)	inactive: -7.12%	–
Cc1ccc(-c2cccc(CN)c2)c(C)c1	inactive: -12.4%	–
O=C1COCC2(CN1Cc1ccccc1)CN(c1cccnc1)C2	inactive: 158% [at 64.5 µM]	–
COc1cccc(C(=O)N2CCOC[C@H](Oc3ccccc3)C2)c1	inactive: 16.7% [at 64.5 µM]	–
CCOCCCNc1ncnc2c1CN(C1CCCNCC1)C(=O)CN2C (centres undefined)	inactive: -3.49%	–
CC(C)Cc1ccc(S(=O)(=O)N2CCCC(Cn3cnc4cccnc43)C2)cc1 (centres undefined)	inactive: 19.7% [at 64.5 µM]	–
NCC(=O)N1Cc2ccccc2CC2(CCCCN2CC2CCOCC2)C1 (centres undefined)	inactive: 2.3%	–
O=C1NCc2ccccc2CC12CCCN2CC1=CCCCC1 (centres undefined)	inactive: -18.8%	–
c1cncc(CNc2cc(-c3cnc4ccccc4n3)c3cc[nH]c3n2)c1	inactive: -5.54% [at 64.5 µM]	–
Cc1ccc(-c2cccc(CN3CCCC(c4nc5ccc(F)cc5c(=O)[nH]4)C3)c2)c(C)c1 (centres undefined)	inactive: -35.5%	–
O=C1NCc2ccccc2CC12CCN(Cc1ccccc1Br)C2 (centres undefined)	inactive: -5.61%	–
O=C1NC2(Cc3ccccc31)CN(C(=O)c1ccccc1)C2	inactive: -15.2%	–
O=C1NCc2ccccc2CC12CCN(Cc1ccc(Br)cc1)C2 (centres undefined)	–	active: 17.5 µM
O=C(N1CCCCC1)N1CCCC1c1nnc2n1CCNC2 (centres undefined)	inactive: -18.6%	–
CC(C)NC(=O)N1CCC2(CC1)CN(C(=O)Cc1c[nH]c3ccccc13)CCO2	inactive: -6.28%	–
CNC(c1ccccc1)c1ccccc1	inactive: -18.7%	–
Cc1nc(N2CCC(NC(=O)CC3CCCCC3)CC2)cc(C(F)(F)F)n1	inactive: 3.04% [at 64.5 µM]	–
Cc1cccc(OCC(=O)N(C)C2CCc3nn(CC4CC4)c(=O)n3CC2)c1 (centres undefined)	inactive: -12.3% [at 64.5 µM]	–
COc1ccc(CC(=O)N2Cc3ccccc3CC3(CCCN(C)C3)C2)cc1 (centres undefined)	inactive: -20.3%	–
O=C1NCc2ccccc2CC12CCN(Cc1ccc(O)cc1)CC2	inactive: -17.8%	–

SMILES	activity change, negative = inhibition	Potency
COc1ccccc1-c1ccc(CN2CCCC(c3nc4ccc(F)cc4c(=O)[nH]3)C2)cc1 (centres undefined)	inactive: -29.2%	–
COc1ccc(-c2nc(C3CC3)nc3c2CN([S+](=O)([O-])c2ccccc2)CC3)cc1	inactive: -25.8%	–
COc1ccc(CNc2ncnc3c2CN(C2CCCNC2)C(=O)CN3C)cc1 (centres undefined)	inactive: -15.2%	–
CC(C)NC(=O)N1CNC(=O)C12CCN(C(=O)CN)CC2	inactive: -9.45%	–
C[C@]1(CO)[C@H]2Cc3sc(NC(=O)c4ccnc(Cl)c4)nc3[C@@H](CC(=O)O)[C@]2(C)CC[C@H]1O	inactive: -0.718% [at 64.5 µM]	–
CCCCc1ncc(-c2nccn2C2CCNC2)[nH]1 (centres undefined)	inactive: 21.1% [at 64.5 µM]	–
CC(C)NC(=O)N1CCCC(c2nnc3n2CCNC3)C1 (centres undefined)	inactive: -24.8%	–
CC(=O)NCCC(=O)N1Cc2ccccc2CC2(CCCN2CC2CCNC2)C1 (centres undefined)	inactive: -16.7%	–
CN1CC(=O)N(C2CCNCC2)Cc2c1ncnc2N1CCCC(O)C1 (centres undefined)	inactive: -29.2%	–
CC(=O)N1CCC(c2nnc3n2CCNC3)CC1	inactive: -11.2%	–
Cc1cc(C(=O)NCc2ccncc2)c2c(C3CCNCC3)noc2n1	inactive: -14.7%	–
C[S+](=O)([O-])N1CCC(c2nnc3n2CCNC3)CC1	inactive: -6.19%	–
COc1cc(CN2CCCCC23Cc2ccccc2CNC3=O)ccc1F (centres undefined)	inactive: -19.9%	–
O=[S+]([O-])(c1ccccc1)N1CC(Oc2ccc(F)c(F)c2)C1	inactive: -14.7%	–
O=C1NCc2ccccc2CC12CCN(Cc1cc(F)ccc1F)C2 (centres undefined)	inactive: -21.8%	–
O=C(c1ccccc1)N1CCn2c(nn(-c3cccc(Cl)c3)c2=O)C1	inactive: -29%	–
CCC(=O)N1Cc2ccccc2CC2(CCN(CC3CCNCC3)CC2)C1	inactive: -11%	–
COc1ccc(C(=O)N2CCn3c(nnc3C3CCNCC3)C2)cc1	inactive: -15.7%	–
CC[C@@](N)(C(=O)O)c1ccc(C(=O)O)cc1	inactive: 8.94%	–
Cn1nc(C2CCNC2)c2c(C(=O)NCc3ccncc3)cc(C3CC3)nc21 (centres undefined)	inactive: -24.7%	–
CC(=O)NC(c1ccco1)c1cc(Cl)c2cccnc2c1O (centres undefined)	–	active: 4.85 µM
COc1ccc(-c2noc([C@@H](C)NCC3CCCCC3)c2C(=O)O)cc1	inactive: -14.3% [at 64.5 µM]	–

SMILES	activity change, negative = inhibition	Potency
CCNc1ncnc2c1CN(C1CCCNCC1)C(=O)CN2C (centres undefined)	inactive: -3.49%	–
Cc1ccc2nc(C3CCN(Cc4cccs4)CC3)[nH]c(=O)c2c1	inactive: -18.6%	–
CN1CC(=O)N(C2CCCNC2)Cc2c(NCCc3ccccc3F)ncnc21 (centres undefined)	inactive: -12.1%	–
O=C(NC1CCN(c2cc(C(F)(F)F)ncn2)CC1)c1ccccc1	inactive: -9.8% [at 64.5 µM]	–
CN1CC(=O)N(C2CCNC2)Cc2c(NC3CCN(Cc4ccccc4)CC3)ncnc21 (centres undefined)	inactive: -13.3%	–
O=C(NC1CCCCC1)N1CCCC1c1nnc2n1CCNC2 (centres undefined)	inactive: -17.1%	–
CCC(=O)N1Cc2ccccc2CC2(CCCN(CC3CCNC3)C2)C1 (centres undefined)	inactive: -0.122%	–
O=C1NCc2ccccc2CC12CCN(Cc1ccnc3ccccc13)C2 (centres undefined)	inactive: -25.8%	–
O=C(NCc1ccc(Cl)nc1)c1cnn2c1CN(C(=O)c1ccccc1)CC2	inactive: -7.59%	–
O=C(O)CCCC(=O)N1Cc2ccccc2CC2(CCCCN2CCc2ccccc2)C1 (centres undefined)	inactive: -6.66%	–
C[S+](=O)([O-])NC1CC2(CCN(C(=O)CCCN)CC2)c2ccccc21 (centres undefined)	inactive: -19.1%	–
CC(=O)NC1CC2(CCN(C(=O)CCCNC(=O)OC(C)(C)C)CC2)Oc2ccccc21 (centres undefined)	inactive: -9.05%	–
CN1CCC(C(=O)N2Cc3ccccc3CC3(CCCCN3CC3CCNCC3)C2)CC1 (centres undefined)	inactive: -24.4%	–
CC(C)CNC(=O)c1cc(C2CC2)nc2onc(C3CCCNC3)c12 (centres undefined)	inactive: -8.92%	–
O=C(c1ccc(C(F)(F)F)cc1)N1CCn2c(nnc2C2CCCNC2)C1 (centres undefined)	inactive: -18.7%	–
Cc1noc(C)c1S(=O)(=O)N1CCC(N2CCOC2=O)CC1	inactive: -9.89%	–
CN(c1ccc(Cl)c(Cl)c1)C1CNC1	inactive: -9.16%	–
Cc1ccc(CN2CC3ON=C(C(=O)O)C3C2)cc1 (centres undefined)	inactive: -27.1%	–
FC(F)(F)c1ccc(N2C3CCC2CN(Cc2cccc(-c4cccs4)c2)C3)cc1	inactive: -3.77%	–
CC/C(=C(\c1ccccc1)c1ccc(OCCN(C)C)cc1)c1ccccc1	inactive: -27.6%	–
O=C(NC1CCNCC1)c1cc(C2CC2)nc2onc(C3CCCN3)c12 (centres undefined)	inactive: -4.15%	–
O=C(O)c1cccc(-c2cncc(C(=O)O)c2)c1	inactive: -11.8%	–

SMILES	activity change, negative = inhibition	Potency
CC(=O)N1CC2(CCCN(CC3CCCCC3)C2)Cc2ccccc21 (centres undefined)	inactive: -4.35%	–
O=C1NC(=NC2CCCC2)C2(CCCN(Cc3ccsc3)C2)N1c1cc(F)cc(F)c1 (centres undefined)	inactive: -8.77%	–
CN1CC(=O)N(C2CCCNC2)Cc2c(NC3CCCCCC3)ncnc21 (centres undefined)	inactive: -16.7%	–
CNC(=O)c1cn2c(n1)CN([S+](C)(=O)[O-])CC2	inactive: -21.3%	–
CC(=O)NC1CC2(CCN(C(=O)Cc3cnc[nH]3)CC2)c2ccccc21 (centres undefined)	inactive: -3.09%	–
CN1CCN(CC2(N)CCCCC2)CC1	inactive: -1.35% [at 233 µM]	–
CN1CC(=O)N(C2CCCNCC2)Cc2c1ncnc2N1CCN(c2ccccn2)CC1 (centres undefined)	inactive: -3.05%	–
c1ccc(COCCCc2cnc[nH]2)cc1	inactive: -4.41%	–
CN1CC(=O)N(c2ccc(Cl)cc2)Cc2c(NCC3CC3)ncnc21	inactive: -20.9%	–
COCc1nc(C2CC(N)C2)cc(N(C)CCN2CCCCC2=O)n1 (centres undefined)	inactive: -20% [at 64.5 µM]	–
CC(C)[S+](=O)([O-])N1CCN(c2ccc(C=O)cc2)C(=O)C1	inactive: -1.24%	–
O=C1CCCN1CCCN1C(=O)[C@@H]2C[C@@H](O)CN2C2(CN(Cc3cccc(OC(F)(F)F)c3)C2)C1=O	inactive: -0.894% [at 64.5 µM]	–
CN1CC(=O)N(C2CCCNCC2)Cc2c(NCc3ccc4c(c3)OCO4)ncnc21 (centres undefined)	inactive: -21.5%	–
O=Cc1ccc(-c2cncc(C(=O)O)c2)cc1	inactive: -13.9% [at 233 µM]	–
c1ccc(C2(c3ccccc3)CCCN(Cc3cscn3)C2)cc1	inactive: -5.78% [at 64.5 µM]	–
CC(=O)NCCC(=O)N1Cc2ccccc2CC2(CCCN(CC3CCNC3)C2)C1 (centres undefined)	inactive: -2.11%	–
O=C(c1ccccc1F)N1CCC2(C1)C(=O)N(c1ccccc1)c1ccccc12 (centres undefined)	inactive: -12.9%	–
CNc1oc(-c2cccc(Cl)c2)nc1C#N	inactive: -2.27% [at 64.5 µM]	–
OCC1CN(Cc2ccc(Cl)cc2)CC12CCNCC2 (centres undefined)	inactive: -4.83% [at 64.5 µM]	–
O=C(OCC#CCSc1nnc(-c2cccc3ccccc23)o1)c1ccccc1F	inactive: -14.4% [at 64.5 µM]	–
Cc1cccc(CN2CCCC23Cc2ccccc2CNC3=O)c1 (centres undefined)	inactive: -20.7%	–
Cc1ccc(C(=O)N2CCC3(CC(C(C)C)=NO3)C2)cc1 (centres undefined)	inactive: -5%	–

SMILES	activity change, negative = inhibition	Potency
CCCNC(=O)N1CC[C@@H]2[C@H]1C(=O)N(c1cccc(F)c1)C(=O)N2Cc1cccs1	inactive: 17.7% [at 64.5 µM]	–
COc1ccc(CN2C[C@H](O)C[C@H]2c2nc(-c3ccc(OC)cc3)no2)cc1	inactive: -19.6% [at 64.5 µM]	–
CC(C)NC(=O)NC1CC2(CCN(C(=O)Cc3ccc(O)cc3)CC2)c2ccccc21 (centres undefined)	inactive: -17.5%	–
Cc1cccn2c(CNC3CCC4(CCNCC4)CC3)cnc12	inactive: 0.399% [at 64.5 µM]	–
Cc1cc(C(=O)NCc2ccc(F)cc2)c2c(C3CCCNC3)noc2n1 (centres undefined)	inactive: -10%	–
CC(C)Nc1ncnc2c1CN(C1CCCNC1)C(=O)CN2C (centres undefined)	inactive: -17.1%	–
CC(C)c1nc2c(c(-c3ccc(Cl)cc3)n1)CCN(Cc1cccc3ccccc13)CC2	inactive: -18.3%	–
O=C1NCCCCCCN[C@H]2C[C@H](c3nc(-c4cccnc4)no3)C[C@@H]12	inactive: -9.6% [at 64.5 µM]	–
O=C(OCC#CCSc1nnc(-c2cccc3ccccc23)o1)c1ccsc1	inactive: -10.6% [at 64.5 µM]	–
Cc1noc(C)c1-c1cc2cc(C(C)C)oc2c(-c2cccc(CO)c2)n1	inactive: -6.07% [at 64.5 µM]	–
COCCNc1ncnc2c1CN(C1CCCNCC1)C(=O)CN2C (centres undefined)	inactive: -5.38%	–
CCc1nc2c(c(-c3ccc(OC)cc3)n1)CCN(Cc1cccc3ccccc13)CC2	inactive: -29.4%	–
Cn1ccnc1CNc1nccc(-c2cnn(-c3ccccc3F)c2)n1	inactive: 12.3% [at 64.5 µM]	–
CCC(=O)N1Cc2ccccc2CC2(CCN(CC3CCNC3)C2)C1 (centres undefined)	inactive: -20.6%	–
Cc1ccc(-c2ccccc2CN)cc1Cl	inactive: -19.5%	–
CC1=C[C@@H](CNCc2ccncc2)[C@H](C(C)C)C[C@H]1Cc1nnc(-c2ccc([N+](=O)[O-])cc2)o1	inactive: 32.6% [at 64.5 µM]	–
O=C(NCc1ccc(-c2cnc3c(Oc4ccccc4)nccn23)cc1)c1ccn[nH]1	inactive: -6.61% [at 64.5 µM]	–
CCNc1ncnc2c1CN(C1CCCNC1)C(=O)CN2C (centres undefined)	inactive: -11.7%	–
C[C@@H](CC(=O)O)[C@@H](N)C(=O)O	inactive: -1.01%	–
CC1CCCN(c2ncnc3c2CN(C2CCNCC2)C(=O)CN3C)C1 (centres undefined)	inactive: -21%	–
O=C(c1ccccc1)N1Cc2ccccc2CC2(CCCCN2CC2CCNC2)C1 (centres undefined)	inactive: -25.9%	–
